Source: PubChem BioAssay AID463173 (ICCB-Longwood Screening Facility, Harvard Medical School, 2010)
Screen size: about 52,000 compounds; about 4,300 (8.3%) were called active. Rule as the data show it: active = survival mostly below about 52% (no sharp cut-off); inactive = mostly above about 56%. The list shows a part of the results.

Each compound was assayed on DeltatarO mutant (assay: growth inhibition of S. aureus wild type versus tarO mutant, primary screen, teichoic acid synthesis inhibitors, RN4220, OD600 (AID 463173)). Conditions: OD600, 18 h, stronger effect = lower value, screened at 18.75 µg/mL (by protocol).
With `O=C(Cn1nc(-c2ccc(Cl)cc2)c2ccccc2c1=O)NCCN1CCOCC1` the survival was inactive: 97%. For `Cc1ccc(CNC(=O)CN2C(=O)COc3ccccc32)cc1`, the survival was inactive: 94%. In the case of `Cc1ccc(C(=O)c2cn(Cc3c(F)cccc3Cl)c3nc(C)ccc3c2=O)cc1`, the survival is reported as inactive: 62%. `COC(=O)C1C(c2ccccc2)C(C(=O)N2CCN(C)CC2)C1c1ccccc1` (stereo not given) was tested, and the survival was inactive: 80%. With `Cc1cccc(C)c1NC(=O)Cn1cc(S(=O)(=O)Cc2ccc(F)cc2)c2ccccc21` the survival was inactive: 78%. In the case of `CCOC(=O)c1cc(-c2ccc(C)cc2)n(CCC(=O)Nc2cc(Cl)ccc2C)c1C`, the survival is reported as inactive: 85%. `CCOc1ccc(CCNC(=O)c2cc(Nc3ccc(C)cc3C)nc3ccccc23)cc1OCC` was tested, and the survival was inactive: 123%. `CC(=O)c1cc(-c2ccccc2)n(CCC(=O)Nc2nc3c(C)cccc3s2)c1C` was tested, and the survival was inactive: 71%. In the case of `O=C(CSc1nccc(=O)[nH]1)Nc1ccc(Cl)cc1`, the survival is reported as inactive: 79%. `CC1CCN(S(=O)(=O)c2ccc3[nH]cc(C(=O)NCc4ccc(F)cc4)c(=O)c3c2)CC1` was tested, and the survival was inactive: 81%. With `Cc1noc(-c2ccc(-c3noc(-c4ccccc4)n3)cc2)n1` the survival was active: -4%. For `CCc1ccc(C2CC(=O)c3c([nH]c(C(=O)OCc4ccc(C)cc4)c3C)C2)cc1` (stereo not given), the survival was inactive: 93%. With `CCC(C(=O)NCc1ccc2c(c1)CCN2C(=O)c1ccc(F)cc1)c1ccccc1` (stereo not given) the survival was inactive: 80%. For `CCc1nc2ccc(C(=O)NCCc3ccc(OC)cc3OC)cc2nc1CC`, the survival was inactive: 68%. For `O=C(NCCc1ccc(Cl)cc1)c1ccc(CS(=O)(=O)Cc2ccc(Cl)cc2)o1`, the survival was inactive: 62%. In the case of `O=C(Cn1c(=O)n(Cc2ccc(C(=O)NCc3ccc4c(c3)OCO4)cc2)c(=O)c2ccccc21)Nc1cccc(Cl)c1`, the survival is reported as inactive: 96%. For `CC1=C(C(=O)Nc2cccc(C(F)(F)F)c2)C2(CCCCCC2)OC1=O`, the survival was active: 32%. For `O=C1Cc2cc(S(=O)(=O)N3CCCCC3)cc3c2N1CCC3`, the survival was inactive: 92%. `Cc1ccc(N2CC(NC(=O)Cc3ccc(F)cc3)CC2=O)cc1` (stereo not given) was tested, and the survival was inactive: 89%. For `Cc1ccc2c(c1)sc1nc(-c3cc4cc(Cl)ccc4oc3=O)cn12`, the survival was inactive: 66%. With `COc1cc2[nH]c(=O)n(Cc3ccc(C(=O)NCc4ccc(C)cc4)cc3)c(=O)c2cc1OC` the survival was inactive: 66%. In the case of `COc1ccccc1NC(=O)Cn1c(=O)n(-c2cccc(Cl)c2)c(=O)c2sc3ccccc3c21`, the survival is reported as inactive: 103%. With `CC1=C(C(=O)Nc2ccccc2)C(c2cccs2)n2nc(SCc3ccccc3)nc2N1` (stereo not given) the survival was inactive: 68%. `O=C(Nc1c2c(nn1-c1ccc(Cl)cc1)CS(=O)(=O)C2)c1cccc(Cl)c1` was tested, and the survival was inactive: 71%. In the case of `CC(=O)N1c2ccc(S(=O)(=O)NCCC(=O)Nc3ccc(C)cc3Br)cc2CC1C` (stereo not given), the survival is reported as inactive: 59%. `O=C(CSc1ccc2nnc(CCNS(=O)(=O)c3ccccc3)n2n1)Nc1ccccc1C(F)(F)F` was tested, and the survival was inactive: 114%. With `Cc1ccc(CNC(=O)Cn2ccn(-c3cc(C)cc(C)c3)c(=O)c2=O)cc1` the survival was inactive: 84%. In the case of `COc1ccccc1NC(=O)Cn1nc(C)n2cccc2c1=O`, the survival is reported as inactive: 89%. `COc1ccc(OC)c(NC(=O)c2cc3cc4ccc(C)cc4nc3s2)c1` was tested, and the survival was inactive: 77%. For `CCOc1ccccc1CN1CCc2nc(Nc3ccccc3)ncc2C1`, the survival was inactive: 71%. In the case of `Fc1ccccc1C1=NC(c2ccc(C(F)(F)F)cc2)=Nc2ccccc2N1`, the survival is reported as inactive: 74%. In the case of `COc1cc(CN2CCN(S(=O)(=O)c3ccc(F)cc3)CC2)cc(OC)c1OC`, the survival is reported as inactive: 70%. In the case of `O=C(NCc1ccccn1)c1nn(-c2ccccc2F)nc1CO`, the survival is reported as inactive: 96%. `COc1ccc(CCN2C(=O)CN(C3CCCCCC3)C(=O)C2c2ccc(C)cc2)cc1OC` (stereo not given) was tested, and the survival was inactive: 92%. In the case of `COC(=O)c1cc(OC)c(OC)cc1NC(=O)c1ccc2c(c1)CCN2S(=O)(=O)c1ccccc1`, the survival is reported as inactive: 66%. In the case of `Fc1ccc(-n2ncc3c(N4CCN(Cc5ccccc5)CC4)ncnc32)cc1`, the survival is reported as inactive: 91%. In the case of `CCc1ccc(CNC(=O)c2ccc3c(c2)nc2n3CCCCC2)cc1`, the survival is reported as inactive: 79%. With `COc1ccc(OC)c(CCNC(=O)CN2C(=O)COc3ccc(S(=O)(=O)N4CCCCCC4)cc32)c1` the survival was inactive: 66%. `Cc1ccc(C)c(Cn2cnc3ccccc3c2=O)c1` was tested, and the survival was inactive: 38%. For `COc1cccc(N=c2oc3cc(O)ccc3cc2C(=O)NCC2CCCO2)c1` (stereo not given), the survival was inactive: 95%. `COc1cccc(CNC(=O)CCNS(=O)(=O)c2ccc3c(c2)CCCC(=O)N3)c1` was tested, and the survival was inactive: 54%. In the case of `CCCCN(CC)Cc1ccc(CNS(=O)(=O)c2cc3c(cc2Cl)NC(=O)CO3)o1`, the survival is reported as active: 0%. In the case of `CCOc1ccc(NC(=O)Cn2c(=O)n(Cc3ccc(C(=O)NCc4ccc5c(c4)OCO5)cc3)c(=O)c3ccccc32)cc1`, the survival is reported as inactive: 104%. For `Cc1cc(C)cc(NC(=O)CSc2nc(-c3ccccc3)nn2C(=O)c2ccco2)c1`, the survival was inactive: 110%. `CCCCOc1ccc(C(=O)Nc2ccc3c(c2)CCCN3S(=O)(=O)c2ccc(C)cc2)cc1` was tested, and the survival was inactive: 71%. For `CCOc1ccc(-c2cc(NC(=O)Nc3ccccc3C(F)(F)F)c(C(=O)OC)s2)cc1`, the survival was inactive: 60%. `COC(=O)c1ccc(Cn2c(SCC(=O)Nc3ccc(F)cc3)nc3ccccc32)cc1` was tested, and the survival was inactive: 81%. With `Cc1ccc(N2CC(C(=O)NCc3nnnn3-c3ccc(C)c(C)c3)CC2=O)cc1` (stereo not given) the survival was inactive: 69%. With `Cc1cc[n+](CC(=O)N2CCCCC2)cc1` the survival was inactive: 89%. `CCc1nnc(NC(=O)CSc2nc3c([nH]c4ccccc43)c(=O)n2-c2ccc(OC)cc2)s1` was tested, and the survival was inactive: 118%. For `CC(C)c1ccc(/C=C(\C#N)c2nc(-c3ccc(O)cc3)cs2)cc1`, the survival was active: -1%. For `O=C(C1CCCCC1)N(Cc1cccnc1)c1nc2ccc(F)cc2s1`, the survival was inactive: 99%. With `CCOc1ccc(NC(=O)Cn2c(=O)cc(C)c3c(C)nn(-c4ccc(CC)cc4)c32)cc1` the survival was inactive: 79%. For `COc1ccc(C(=O)Nc2ccccc2C(=O)OCc2cc(=O)n3nc(C4CC4)sc3n2)cc1`, the survival was inactive: 70%. For `CCOC(=O)N1CCc2c(sc3c2c(=O)n(-c2ccc(CC)cc2)c(=O)n3Cc2cc(C)ccc2C)C1`, the survival was inactive: 83%.
